The supplement of paper PMC10126150
Values marked as one replicate rest on one cluster of the flow cell; about a third of the high ones do not repeat.
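Also: ATP exposure 15 min at 22 °C before imaging.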

The sequences below were run on ATP (assay: switch fluorescence ratio, 500 uM ATP over buffer (Cy3 cluster intensity, sum of 5 cycles each) (fold (ratio)); higher = stronger signal-on switching upon ATP binding; sequences stand for … in TCGTCGGCAGCGTCAGATGTGTATAAGAGACAGTTTTTTTTTTTTTTTTTTTTTTTTT…TC). Conditions: aptamer strand: ATP DNA aptamer (quencher-CACCTGGGGGAGTATTGCGGAGGAAGG + anchor), 100 nM annealed; ATP concentration: 500 uM; one replicate.
How it was run: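 The quencher-labelled ATP aptamer, at 100 nM, was annealed to Cy3-labelled switching-strand clusters on a modified Illumina MiSeq flow-cell. The clusters were imaged in selection buffer, then after 15 min with 500 uM ATP at 22 °C, and this buffer/ATP cycle ran five times with NaOH stripping and re-annealing between runs. Per-cluster fluorescence ratios, summed target-cycle over summed buffer-cycle Cy3 intensity, were averaged per switch-domain sequence. Clusters outside 100-1000 RFU were excluded.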
TATGGCCTTA was tested, and the switch fluorescence ratio was 0.943. CACACGTA showed a switch fluorescence ratio of 1.31. Work on GCATAATAGG yielded a switch fluorescence ratio of 0.973. ATGGGTACCT gave a switch fluorescence ratio of 1.02. CGTCTATC showed a switch fluorescence ratio of 1.06. Work on GTCCATGGTG yielded a switch fluorescence ratio of 0.996. For GCCGTAAGGC, the switch fluorescence ratio was 1.03. In the case of GCGTTGCTGG, the switch fluorescence ratio is reported as 0.974. For TTTGCGATGT, the switch fluorescence ratio was 1. CGAGAAGCCT was tested, and the switch fluorescence ratio was 1.06. Sequence TATCACTTCT has a switch fluorescence ratio of 1.02. ACCTGCCACG was tested, and the switch fluorescence ratio was 1.21. For AATACGCTAA, the switch fluorescence ratio was 1.4. GGAACGTATG showed a switch fluorescence ratio of 1.04. Sequence GCTGCTCGGC has a switch fluorescence ratio of 1.02. TCCAGGTAAT was tested, and the switch fluorescence ratio was 1.08. In the case of GACACTCAAA, the switch fluorescence ratio is reported as 1. For GTGTAATGG, the switch fluorescence ratio was 1. TTCAGAATGA showed a switch fluorescence ratio of 1. GGGAAACTGT was tested, and the switch fluorescence ratio was 0.998. TTAGAATGCT gave a switch fluorescence ratio of 0.991. TGTGGGCACC was tested, and the switch fluorescence ratio was 0.934. AGCGCCGGGT gave a switch fluorescence ratio of 1.04. Sequence ATCCCGGTC has a switch fluorescence ratio of 1.03. With AACTAGACA the switch fluorescence ratio was 1.05. Sequence AGGGTATGAC has a switch fluorescence ratio of 0.975. GAAGCAGGCT gave a switch fluorescence ratio of 1.08. GATCGCGAGG showed a switch fluorescence ratio of 0.962. CTTGAGGGCA gave a switch fluorescence ratio of 1.01. ATTCAGTCGA gave a switch fluorescence ratio of 0.955. For GATTGCGTTG, the switch fluorescence ratio was 1.01. Work on GTCAAAACTT yielded a switch fluorescence ratio of 1.03. Work on TGTCATGGT yielded a switch fluorescence ratio of 1. Sequence GGGATCTTAG has a switch fluorescence ratio of 1.03. Sequence AGCATAATAA has a switch fluorescence ratio of 1.08. Sequence TGTCAGGGCT has a switch fluorescence ratio of 1.01. Work on AGAGTCGACA yielded a switch fluorescence ratio of 1.02. AGCGCGGTCT showed a switch fluorescence ratio of 1.04. TAGAAGATAA was tested, and the switch fluorescence ratio was 0.96. For AGGGGGACA, the switch fluorescence ratio was 0.991. With TTCACTCCCT the switch fluorescence ratio was 1.34. With ATGAGGCCT the switch fluorescence ratio was 1.04. Work on TTCTAAAACT yielded a switch fluorescence ratio of 1.01. Sequence CACTGGGCAA has a switch fluorescence ratio of 0.924. CTTCGAGCCG gave a switch fluorescence ratio of 0.953. CGTCATGCAG showed a switch fluorescence ratio of 1.06. Work on GGTGAAGGG yielded a switch fluorescence ratio of 1.01. With CGTCGAGGCC the switch fluorescence ratio was 1.08. Sequence TCACACGAGA has a switch fluorescence ratio of 1.06. With ACGAAAACGG the switch fluorescence ratio was 1.07. For CTGCGTTGCG, the switch fluorescence ratio was 0.989. For AAGAGGCAGC, the switch fluorescence ratio was 1.02. In the case of GCTTTTAGGC, the switch fluorescence ratio is reported as 1.12. AGAAAACACG showed a switch fluorescence ratio of 0.96. CAAGCGAAAA showed a switch fluorescence ratio of 1.06. In the case of TTGAGCAACC, the switch fluorescence ratio is reported as 1.18. Work on GCCTGGCATT yielded a switch fluorescence ratio of 1. With TTCCACCGTT the switch fluorescence ratio was 1.19. CTAGGTGGC gave a switch fluorescence ratio of 1.13. With ATAACATTGT the switch fluorescence ratio was 1.06. TCTTGAATCT showed a switch fluorescence ratio of 0.995. Work on ATTTTCTAAC yielded a switch fluorescence ratio of 0.952. GGCGGCATGC was tested, and the switch fluorescence ratio was 1.05. GAAGTGATTT showed a switch fluorescence ratio of 1.06. With AATTCCTAAG the switch fluorescence ratio was 1. TACCTTCCGC was tested, and the switch fluorescence ratio was 2.71. TAACTCATGC gave a switch fluorescence ratio of 1.08. CCAGGCTGTG showed a switch fluorescence ratio of 0.956. AAGGATTTT was tested, and the switch fluorescence ratio was 0.97. AATCCGGATT gave a switch fluorescence ratio of 0.993. Sequence AGGACTGTGC has a switch fluorescence ratio of 1.02. Work on AATCTGAATA yielded a switch fluorescence ratio of 1.02. CTATTGGGGA was tested, and the switch fluorescence ratio was 0.975. CGAGCTGGTG gave a switch fluorescence ratio of 1.15. GCTCGCTTC showed a switch fluorescence ratio of 1.04. With GCTAAAGAAT the switch fluorescence ratio was 1.01. In the case of TACTACTGAT, the switch fluorescence ratio is reported as 1.06. With TTCACAACCA the switch fluorescence ratio was 1.02. CACTGGGCTT was tested, and the switch fluorescence ratio was 1.03. With ATCGGAGTCA the switch fluorescence ratio was 0.988. GCGAGGACGG showed a switch fluorescence ratio of 1.02. For GAGGCACGCG, the switch fluorescence ratio was 1.02. GGCAGAGGAC showed a switch fluorescence ratio of 1.02. In the case of AACTTTTGTA, the switch fluorescence ratio is reported as 0.974. For GATTCGAGGG, the switch fluorescence ratio was 0.975. For AATGGTTGGA, the switch fluorescence ratio was 1.03. Work on ACTCCTGGAA yielded a switch fluorescence ratio of 2.6. Sequence CATGTTCACT has a switch fluorescence ratio of 1.01. With ACCCCTACT the switch fluorescence ratio was 1.33. AATAGGAGGG was tested, and the switch fluorescence ratio was 0.999. Work on GCAGACAGTA yielded a switch fluorescence ratio of 1.01. In the case of GCTCTACGAG, the switch fluorescence ratio is reported as 1. GAGTACCGAT was tested, and the switch fluorescence ratio was 0.973. For ACTCTCTTAA, the switch fluorescence ratio was 0.982. Work on CATCTTAGGT yielded a switch fluorescence ratio of 1.05. Sequence CCCGTAGTTT has a switch fluorescence ratio of 1.04. In the case of AGGTCTGGTG, the switch fluorescence ratio is reported as 0.995. CAGGCGACGT was tested, and the switch fluorescence ratio was 0.991. In the case of CGGTTATTAC, the switch fluorescence ratio is reported as 1.13. ATTAGATTAC gave a switch fluorescence ratio of 1.04.
